Source: publication PMC11169412
Residue numbers refer to the chain shown, from its start. Read-outs that look alike come from different tables or passages of the source. No constants are given. Whether binding was seen depends on the method and setting. Binding seen in cells or lysates may run through a third protein. Some results given as binding are weak or reduced against the parent protein; the word gives no strength. For part of these data: Sequences can lack the tags named with a protein. Blank lines part the entries; values can stand above or below the molecule they belong to.

The chains behind the UniProt entries cited, without tags or fusion partners. Where a name states a change or a piece, a line headed by the entry shows the natural chain unless it says otherwise.
UniProt P54290: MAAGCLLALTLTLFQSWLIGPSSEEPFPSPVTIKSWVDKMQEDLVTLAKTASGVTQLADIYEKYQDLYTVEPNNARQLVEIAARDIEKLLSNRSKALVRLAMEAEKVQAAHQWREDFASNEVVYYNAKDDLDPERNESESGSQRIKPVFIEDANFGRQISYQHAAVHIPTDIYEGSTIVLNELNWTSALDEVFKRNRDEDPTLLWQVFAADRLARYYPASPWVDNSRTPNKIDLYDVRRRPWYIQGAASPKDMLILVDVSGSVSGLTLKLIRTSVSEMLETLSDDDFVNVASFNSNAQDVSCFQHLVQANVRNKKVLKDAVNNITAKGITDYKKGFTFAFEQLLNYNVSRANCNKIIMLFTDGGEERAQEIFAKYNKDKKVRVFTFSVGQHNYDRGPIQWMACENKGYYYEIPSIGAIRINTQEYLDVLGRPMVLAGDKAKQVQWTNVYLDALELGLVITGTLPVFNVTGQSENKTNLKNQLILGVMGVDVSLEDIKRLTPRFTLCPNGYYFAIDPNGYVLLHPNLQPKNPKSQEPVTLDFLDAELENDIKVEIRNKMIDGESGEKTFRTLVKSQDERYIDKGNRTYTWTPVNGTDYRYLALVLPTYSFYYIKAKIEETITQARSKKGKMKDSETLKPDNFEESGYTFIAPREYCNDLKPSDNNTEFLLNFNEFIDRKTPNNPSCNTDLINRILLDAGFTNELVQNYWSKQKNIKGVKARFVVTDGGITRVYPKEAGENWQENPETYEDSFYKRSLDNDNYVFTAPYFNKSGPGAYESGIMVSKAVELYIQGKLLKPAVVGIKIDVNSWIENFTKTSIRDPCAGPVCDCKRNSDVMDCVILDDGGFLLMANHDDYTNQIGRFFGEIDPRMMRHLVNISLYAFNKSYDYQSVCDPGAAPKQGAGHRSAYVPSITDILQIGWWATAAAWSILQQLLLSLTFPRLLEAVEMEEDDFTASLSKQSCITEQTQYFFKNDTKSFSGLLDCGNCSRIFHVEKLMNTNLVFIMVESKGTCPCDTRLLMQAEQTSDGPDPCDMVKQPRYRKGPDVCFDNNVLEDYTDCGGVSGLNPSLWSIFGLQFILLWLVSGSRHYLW
UniProt Q9R0N3: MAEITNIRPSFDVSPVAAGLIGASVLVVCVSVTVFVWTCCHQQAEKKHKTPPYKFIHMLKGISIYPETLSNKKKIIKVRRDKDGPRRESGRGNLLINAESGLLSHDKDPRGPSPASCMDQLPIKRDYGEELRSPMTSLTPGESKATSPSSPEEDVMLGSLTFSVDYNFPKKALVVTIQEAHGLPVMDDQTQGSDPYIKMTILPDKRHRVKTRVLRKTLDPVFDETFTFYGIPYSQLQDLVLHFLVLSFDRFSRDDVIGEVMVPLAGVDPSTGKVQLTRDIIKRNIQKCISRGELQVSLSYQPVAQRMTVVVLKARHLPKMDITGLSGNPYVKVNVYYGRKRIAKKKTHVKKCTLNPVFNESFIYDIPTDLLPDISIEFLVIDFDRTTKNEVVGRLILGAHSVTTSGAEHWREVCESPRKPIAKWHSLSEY
UniProt Q5DTY9: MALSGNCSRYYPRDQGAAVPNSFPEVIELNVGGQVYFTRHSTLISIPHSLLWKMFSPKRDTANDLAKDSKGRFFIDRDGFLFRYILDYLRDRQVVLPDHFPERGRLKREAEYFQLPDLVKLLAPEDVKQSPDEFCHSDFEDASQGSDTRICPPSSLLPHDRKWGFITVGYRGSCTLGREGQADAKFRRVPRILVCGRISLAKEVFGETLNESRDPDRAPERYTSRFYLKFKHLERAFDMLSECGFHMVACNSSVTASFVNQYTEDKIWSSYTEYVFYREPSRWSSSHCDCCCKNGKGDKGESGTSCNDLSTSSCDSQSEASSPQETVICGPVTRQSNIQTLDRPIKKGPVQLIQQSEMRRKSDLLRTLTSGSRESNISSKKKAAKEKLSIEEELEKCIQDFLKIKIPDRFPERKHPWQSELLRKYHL
UniProt P46096: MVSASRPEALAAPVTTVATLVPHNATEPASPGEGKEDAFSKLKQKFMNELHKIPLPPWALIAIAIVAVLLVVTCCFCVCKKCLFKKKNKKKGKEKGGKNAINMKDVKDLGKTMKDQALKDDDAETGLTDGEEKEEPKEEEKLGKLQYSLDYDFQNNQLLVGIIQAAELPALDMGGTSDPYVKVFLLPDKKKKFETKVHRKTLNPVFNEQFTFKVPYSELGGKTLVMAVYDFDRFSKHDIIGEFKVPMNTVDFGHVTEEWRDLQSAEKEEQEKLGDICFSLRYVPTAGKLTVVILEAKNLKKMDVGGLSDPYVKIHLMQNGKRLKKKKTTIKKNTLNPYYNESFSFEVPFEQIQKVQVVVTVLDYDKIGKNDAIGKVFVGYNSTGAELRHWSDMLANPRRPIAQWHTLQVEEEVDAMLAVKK
UniProt Q50H33: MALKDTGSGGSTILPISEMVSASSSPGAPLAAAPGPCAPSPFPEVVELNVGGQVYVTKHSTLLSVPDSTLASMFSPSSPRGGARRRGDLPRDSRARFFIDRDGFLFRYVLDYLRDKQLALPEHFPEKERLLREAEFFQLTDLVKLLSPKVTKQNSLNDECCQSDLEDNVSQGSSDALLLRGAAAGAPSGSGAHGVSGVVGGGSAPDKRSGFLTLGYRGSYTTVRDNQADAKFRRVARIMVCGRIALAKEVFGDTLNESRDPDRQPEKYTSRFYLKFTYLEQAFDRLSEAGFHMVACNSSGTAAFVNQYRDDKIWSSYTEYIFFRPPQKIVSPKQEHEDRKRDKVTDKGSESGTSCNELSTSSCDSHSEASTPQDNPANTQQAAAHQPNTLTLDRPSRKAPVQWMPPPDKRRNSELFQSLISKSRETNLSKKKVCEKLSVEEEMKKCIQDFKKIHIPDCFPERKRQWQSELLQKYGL

How the values were obtained:
[1] = target: Cav2.2 channel (α1B subunit co-expressed with auxiliary β and α2δ subunits) (rat | human) (UniProt Q02294+P54284+P54290); test: co-IP; lysates of transfected HEK293T cells in Nonidet P-40 buffer (100 mM NaCl, 1 mM EDTA, 0.5% Nonidet P-40 Substitute, 20 mM Tris/HCl pH 7.4); antibody 3 h at 4 °C, Protein G Dynabeads, 5 washes, Western blot; with or without co-expressed KCTD proteins
eGFP-tagged Syt11 [2] = target: eGFP-tagged Syt11 (UniProt Q9R0N3); test: as above
GB2-VC [3] = target: T1, GB2-VC (UniProt Q80T41); test: as above
T1 sequence: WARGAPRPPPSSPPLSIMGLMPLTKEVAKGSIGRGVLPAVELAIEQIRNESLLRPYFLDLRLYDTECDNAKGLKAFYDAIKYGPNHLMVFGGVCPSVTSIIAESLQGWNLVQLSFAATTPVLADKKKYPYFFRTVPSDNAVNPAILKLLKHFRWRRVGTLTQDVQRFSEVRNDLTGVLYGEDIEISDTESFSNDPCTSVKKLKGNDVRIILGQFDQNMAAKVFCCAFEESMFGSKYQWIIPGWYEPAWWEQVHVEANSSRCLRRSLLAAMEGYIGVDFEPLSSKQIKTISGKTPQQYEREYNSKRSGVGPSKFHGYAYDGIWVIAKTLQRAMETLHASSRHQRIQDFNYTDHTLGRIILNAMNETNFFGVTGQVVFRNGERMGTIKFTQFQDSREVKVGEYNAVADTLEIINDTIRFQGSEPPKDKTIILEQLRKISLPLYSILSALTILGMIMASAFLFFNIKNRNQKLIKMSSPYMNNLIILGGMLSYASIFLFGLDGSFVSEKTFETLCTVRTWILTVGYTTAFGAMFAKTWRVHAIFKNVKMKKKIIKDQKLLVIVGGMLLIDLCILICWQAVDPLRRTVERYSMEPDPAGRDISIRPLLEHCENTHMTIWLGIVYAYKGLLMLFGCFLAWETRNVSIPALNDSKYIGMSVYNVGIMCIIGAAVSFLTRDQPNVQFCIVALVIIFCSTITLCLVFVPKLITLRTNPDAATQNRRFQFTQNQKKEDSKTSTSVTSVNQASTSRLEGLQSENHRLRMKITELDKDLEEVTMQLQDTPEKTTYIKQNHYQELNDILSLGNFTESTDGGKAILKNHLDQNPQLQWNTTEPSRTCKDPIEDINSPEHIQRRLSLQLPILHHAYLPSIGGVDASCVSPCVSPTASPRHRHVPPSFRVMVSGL

HA-tagged GB2 = target: T2, HA-tagged GB2 (UniProt Q80T41); test: as above
T2 sequence: T1 sequence

[4] = target: T3, Myc-tagged intracellular C-terminal domain of GB2 (mouse) (UniProt Q80T41); test: as above
T3 sequence: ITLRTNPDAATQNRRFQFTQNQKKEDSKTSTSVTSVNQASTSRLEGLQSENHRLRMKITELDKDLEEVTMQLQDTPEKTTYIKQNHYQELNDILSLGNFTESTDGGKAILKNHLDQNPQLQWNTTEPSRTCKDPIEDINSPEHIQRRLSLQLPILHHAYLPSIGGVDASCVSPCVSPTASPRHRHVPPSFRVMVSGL

GB2-VC [5] = target: T1, GB2-VC; test: split reporter; BiFC of Venus fragments VN and VC in transfected HEK293T cells, with or without KCTD16; confocal imaging
eGFP-tagged Syt11 [6] = target: eGFP-tagged Syt11 (UniProt Q9R0N3); test: co-IP; lysates of transfected HEK293T cells in Nonidet P-40 buffer (100 mM NaCl, 1 mM EDTA, 0.5% Nonidet P-40 Substitute, 20 mM Tris/HCl pH 7.4); antibody 3 h at 4 °C, Protein G Dynabeads, 5 washes, Western blot; with or without co-expressed KCTD proteins; remark: listed apart in the source

binding [1]: binds
Molecule: Myc-tagged Syt11 (from UniProt Q9R0N3 1-430)

binding (GB2-VC [3]): binds
binding (HA-tagged GB2): binds
Molecule: KCTD16 (tag not told; BiFC validation and Fig. EV2B) (from UniProt Q5DTY9 1-427)

binding (GB2-VC [5]): no binding
Molecule: Syt1-VN (from UniProt P46096 1-421)

binding (eGFP-tagged Syt11 [6]): no binding
B1: HA-tagged GB2Y902A (receptor, UniProt Q80T41 41-940)
chain: T1 sequence with Y862A

Second part, the molecule before the results:

Molecule: KCTD8 (from UniProt Q50H33 1-476)
binding (eGFP-tagged Syt11 [2]): no binding

Molecule: Myc-tagged KCTD16 (from UniProt Q5DTY9 1-427)
binding (eGFP-tagged Syt11 [2]): binds

Molecule: FLAG-tagged KCTD16 (from UniProt Q5DTY9 1-427)
binding [4]: binds
binding [1]: binds
